Here are results for 109 compounds from PubChem BioAssay AID488969 (Vanderbilt High Throughput Screening Facility, 2010).

Over roughly 110,000 compounds, “z-score” has its median near -0.1; the highest 2% begin near 2. The list shows a part of the results.

The experiment concerns the target Metabotropic glutamate receptor 8 (Rattus norvegicus) (UniProt P70579). Kind of experiment: mGluR8 Gi/Go-coupled signaling modulation – cell-based, rat, thallium flux, HTS, primary screen (AID 488969). The settings on record: HEK293 rat mGluR8, GIRK (G protein-gated inwardly rectifying potassium channel) thallium flux, FluoZin2; at 10 µM; stronger effect = higher value; submaximal glutamate (EC20) added with thallium.
UniProt P70579, sequence (P70579 whole entry, looked up): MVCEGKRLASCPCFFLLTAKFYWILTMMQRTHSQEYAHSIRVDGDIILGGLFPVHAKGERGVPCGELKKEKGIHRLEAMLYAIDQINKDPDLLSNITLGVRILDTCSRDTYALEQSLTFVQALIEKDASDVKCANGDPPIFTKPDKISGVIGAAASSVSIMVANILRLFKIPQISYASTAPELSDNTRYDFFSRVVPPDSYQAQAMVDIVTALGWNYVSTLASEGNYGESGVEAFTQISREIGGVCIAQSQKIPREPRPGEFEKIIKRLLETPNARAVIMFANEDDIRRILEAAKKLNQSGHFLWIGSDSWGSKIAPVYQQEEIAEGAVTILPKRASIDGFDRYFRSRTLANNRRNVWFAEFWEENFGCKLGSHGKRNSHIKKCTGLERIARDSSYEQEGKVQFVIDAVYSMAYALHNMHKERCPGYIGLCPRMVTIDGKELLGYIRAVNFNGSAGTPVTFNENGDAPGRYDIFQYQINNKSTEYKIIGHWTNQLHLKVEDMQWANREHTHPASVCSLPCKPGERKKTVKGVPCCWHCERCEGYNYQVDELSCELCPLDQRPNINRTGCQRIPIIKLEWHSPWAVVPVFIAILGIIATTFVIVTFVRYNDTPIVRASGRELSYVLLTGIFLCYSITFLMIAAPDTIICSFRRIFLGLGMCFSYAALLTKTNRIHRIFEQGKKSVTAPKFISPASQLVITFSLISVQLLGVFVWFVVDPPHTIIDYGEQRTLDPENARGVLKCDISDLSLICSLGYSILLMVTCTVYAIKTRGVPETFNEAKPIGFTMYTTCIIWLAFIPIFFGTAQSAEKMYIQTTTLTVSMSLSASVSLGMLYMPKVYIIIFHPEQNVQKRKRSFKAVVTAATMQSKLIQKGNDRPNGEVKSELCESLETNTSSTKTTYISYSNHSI
Turning to `CC(=O)N(CCCCN1C(=O)c2ccccc2C1=O)c1ccc(C)cc1`, the z-score is -0.0897. The compound `CCOC(=O)CC(=O)Nc1nc2ccccc2s1` had a z-score of -0.0103. The result for `O=C(Nc1ccccc1N1CCN(c2ccc(F)cc2)CC1)C12CC3CC(CC(C3)C1)C2` reads -1.97; that for `CCCc1nnc(SCC(=O)N2C(C)CCCC2C)n1CCCOC` (centres undefined), -0.354.

`CC1CCCN(C(=O)c2sc3cc([N+](=O)[O-])ccc3c2Cl)C1` (centres undefined) yielded a z-score of -0.382. The result for `C(=N\N1CCN(C2c3ccccc3-c3ccccc32)CC1)/c1cccs1` reads -0.185. The result for `CCOc1ccc2[nH]c(=O)c(C(c3nnnn3C3CCCCC3)N3CCN(CC)CC3)cc2c1` (centres undefined) reads 0.408. In turn, `CCOC(=O)c1nnc(-c2ccccc2)nc1NC` returned a z-score of -0.246. To `COc1ccc(C(=O)COC(=O)c2ccco2)cc1` belongs 0.472; to `COc1ccc(OC)c(S(=O)(=O)N2c3ccccc3CC2C)c1` (centres undefined), -0.681. For `Cc1ccc(NC(=O)c2ccc3nc[nH]c3c2)cc1C`, the z-score was 0.551. `O=C(NCCc1ccc2c(c1)OCCO2)c1ccc(F)cc1` had a z-score of -0.24. The result for `O=C(c1cc(-c2cccs2)nc2ccccc12)N1CCN(S(=O)(=O)c2ccccc2)CC1` reads -0.231; that for `O=C(Cn1c(C(F)(F)F)nc2ccccc21)NCCCN1CCOCC1`, -0.217. The result for `Cc1c(N=Cc2ccncc2)c(=O)n(-c2ccccc2)n1C` reads -0.041; that for `CCOc1ccc(-c2nnn(CC(=O)NCc3ccc(OC)cc3)n2)cc1OCC`, -0.504; that for `CCN(C(=O)c1ccc2c(OC)n(CC)nc2c1)c1ccc(OC)cc1`, 0.214. To `CCn1c(Cc2ccccc2)nnc1SCc1cccc(C(=O)O)c1` belongs -0.452; to `Cc1cc(C)c(-c2c(O)c3c(n(C)c2=O)CC(C)(C)CC3=O)c(C)c1`, 0.144. The compound `O=C(Nc1ccc(Cl)c(Cl)c1)c1ccncc1` showed a z-score of -0.0419.

For `Cc1[nH]nc(SCC(=O)Nc2ccc(C#N)cc2)c1[N+](=O)[O-]`, the z-score was -0.386.

For `Cc1c(C(=O)NC(C)C)oc2c1-c1[nH]ncc1CC2`, the z-score was 0.204. To `Cc1cccc(Nc2ncc3c(n2)CC(C)CC3=O)c1` (centres undefined) belongs 0.341. In turn, `CCCCCOC(=O)C1=C(C)Nc2nnnn2C1c1ccccc1Cl` (centres undefined) showed a z-score of -0.123. Consider `Cc1ccc(C)c(N2C(=O)CC(N3CCN(Cc4ccc5c(c4)OCO5)CC3)C2=O)c1` (centres undefined), for which the z-score is -0.278.

As for `COc1ccc(CCNC(=O)C2=COCCO2)cc1`, the z-score was -0.23.

As to `CC(=O)Oc1ccc(-c2cccc(C(=O)OCC(=O)N(C)c3ccccc3)c2)cc1`, the z-score was found to be 0.419. The result for `COc1ccc(C2N(c3ccccn3)C(=O)C3CCCN32)c(OC)c1` (centres undefined) reads -0.103. The result for `COc1cc2[nH]c(=O)n(CCC(=O)N3CC=C(c4ccccc4)CC3)c(=O)c2cc1OC` reads -0.0927; that for `Cc1[nH]c2ccccc2c1SCCN`, -0.0524. To `Oc1ccc(Br)cc1-c1cc(-c2ccco2)[nH]n1` belongs -0.7; to `CC(=O)NCCC(=O)Nc1ccc(F)cc1C`, 0.219. As to `Cc1ccc(CCN2CC(C(=O)NCCN3CCCCCC3)CC2=O)cc1` (centres undefined), the z-score amounted to 0.736. In turn, `O=c1[nH][nH]c(-c2ccccc2)c1C=Nc1cccc(Cl)c1` came in with a z-score of -0.34. To `COc1ccc(-c2cc(C(F)F)n3ncc(C(=O)N4CCSCC4)c3n2)cc1` belongs -0.659; to `O=C1NC(=S)N(c2cccc(Cl)c2)C12CCCCC2`, 1.65. The result for `Cc1ccccc1OCC(=O)N(Cc1ccc(N(C)C)cc1)C1CCS(=O)(=O)C1` (centres undefined) reads -0.674; that for `CCCCc1nc2n[nH]c(N)c2c2c1CCCC2`, -1.12.

Regarding `CC(=O)Nc1ccc(NC(=O)COC(=O)c2c3c(nc4ccccc24)CCN(Cc2ccccc2)C3)cc1`, the z-score was -0.0467. To `COc1cccc(-c2noc(CCC(=O)NC3CCCCC3)n2)c1` belongs -0.132; to `Cn1c(=O)c2[nH]c(-c3ccccc3O)nc2n(C)c1=O`, -0.0265. The result for `CCCC(=O)Nc1ccccc1-c1nnn(CC(=O)Nc2ccc(OC)cc2)n1` reads -1.18. To `CCCSc1nnc(NC(=O)c2nc(SC)ncc2Cl)s1` belongs 0.267; to `O=C(CN1CCN(C(=O)c2ccco2)CC1)Nc1ccccc1-c1ccccc1`, 0.108. As for `CC(C)[C@@H]1N[C@]2(C(=O)Nc3ccccc32)[C@@H]2C(=O)N(c3cccc(C(F)(F)F)c3)C(=O)[C@@H]21`, the z-score was -0.346. To `O=C(CSc1nnc(-c2ccccc2)o1)N1CCOCC1` belongs -0.473. `Cc1cccc(NC(c2ccc(O)cc2)c2ccc3ccc(C)nc3c2O)n1` (centres undefined) returned a z-score of -0.308. Turning to `Cc1ccn2c(NC(=O)c3ccco3)c(-c3ccccc3)nc2c1`, the z-score was found to be 0.468. With `NCCCC(=O)N1c2ccccc2Sc2ccccc21`, the z-score was 0.267.

In turn, `O=C1C2C3C=CC(C4CC34)C2C(=O)N1/N=C/c1ccc(-c2cccc([N+](=O)[O-])c2)o1` (centres undefined) showed a z-score of -0.396. Compound `Cc1ccc(C(=O)c2cc([N+](=O)[O-])ccc2N2CCCCC2)cc1` yielded a z-score of -0.438. `O=C(N/N=C/c1ccncc1)c1ccccc1`: the z-score was -0.153.

Turning to `Cn1c(SCC(=O)NCc2ccc3c(c2)OCO3)nnc1C1COc2ccccc2O1` (centres undefined), the z-score was -0.0878.

`Cc1ccc(OC(=O)NC2CCS(=O)(=O)C2)cc1C` (centres undefined) showed a z-score of 0.186. In turn, `Cc1ccc(CNC(=O)CN(C)S(=O)(=O)c2cccc3cccnc23)cc1` had a z-score of -0.061. The result for `O=C(NC(=S)N1CCN(c2ccc([N+](=O)[O-])cc2Cl)CC1)c1ccco1` reads 1.05; that for `COc1ccc(-n2c(SCC(=O)c3c(N)n(C)c(=O)n(C)c3=O)nc3ccccc32)cc1`, 0.304.

The compound `COc1cccc(NC(=O)[C@@H]2CCCN2C(=O)C2CCN(S(=O)(=O)c3ccc(C)cc3)CC2)c1` registered a z-score of -0.205. For `O=C(/C=N/O)NCCN1CCCCC1`, the z-score was 0.135.

Consider `O=C1NC(c2ccccc2)=NC1(Nc1ccccn1)C(F)(F)F` (centres undefined), for which the z-score was 0.148. The result for `C=CCNC(=O)c1ccccc1NC(=O)c1ccccc1C` reads 0.287; that for `CSC1=C(C#N)C(c2ccc(C)s2)CC(=O)N1` (centres undefined), -0.481; that for `O=C(NC1(C(F)(F)F)NC(=O)N(Cc2ccco2)C1=O)c1cccs1` (centres undefined), -0.323. To `Nc1ncnc2c1ncn2CCNCCc1ccccc1` belongs -0.981. The result for `CC(=O)Nc1ccc(NS(=O)(=O)c2cn(C)c(=O)n(C)c2=O)cc1` reads -0.124. As for `CC(C)[C@H](NS(=O)(=O)c1cccc(Cl)c1)C(=O)OCC(=O)N1CCN(c2ccccc2)CC1`, the z-score was -0.62.

For `COc1cccc(N2C(=O)C3C(C2=O)C2C=CC3C23CC3)c1` (centres undefined), the z-score was 0.0195. The result for `Cc1ccc(OC(=O)COc2ccccc2)c(-n2nc3ccccc3n2)c1` reads -0.00045. The result for `CCOc1ccc(Nc2nc3cc(S(=O)(=O)N(CC)CC)ccc3o2)cc1` reads 0.27. The result for `CC1SC(c2ccc(Cl)cc2Cl)NC1=O` (centres undefined) reads -0.0303; that for `COc1ccc(-c2noc(CCC(=O)Nc3cc(Cl)c(OC)cc3OC)n2)cc1`, -0.134.

Compound `CCC1CCCCN1C(=O)c1noc(C(C)C)c1[N+](=O)[O-]` (centres undefined) displayed a z-score of -0.317. To `COC(=O)Cn1cc(/C=N/NC(=O)c2ccc(C#N)cc2F)c2ccccc21` belongs 0.0803. Compound `Cc1ccccc1C(=O)NC(=S)Nc1ccc(S(=O)(=O)N(C)c2ccccc2)cc1` had a z-score of 1.07. The result for `COc1ccc(Br)cc1C(=O)NC(=S)Nc1cc(-c2nc3ccccc3[nH]2)ccc1C` reads -0.25; that for `COCCCNC(=O)c1oc2ccc(S(=O)(=O)N(C)C3CCCCC3)cc2c1C`, -1.01; that for `CCCc1cc(C(N)=O)c(NC(=O)c2cc(C)on2)s1`, -0.444. The result for `CCN(CC)c1nc(N)c2c(N)n(-c3ccccc3C)c(=S)c(C#N)c2c1C#N` reads 0.161; that for `O=C(CSCC(=O)N1CCCCC1)Nc1nc(-c2ccc(Cl)s2)cs1`, 2.68; that for `COc1ccc(C(=O)/C=C/c2ccc(OC)c(O)c2)c(F)c1`, -0.337. To `CCCCC(=O)Nc1ccc(NC(=O)c2cccnc2)cn1` belongs 0.115; to `Cc1ccc2cc(CN(C(=O)c3ccncc3)C(C)C)c(=O)[nH]c2c1`, 0.449; to `CCC1(C)CC(CC(=O)O)(c2ccccc2OC)CCO1` (centres undefined), 0.473.

For `CC(=O)c1cnc2nc(C(F)(F)F)nn2c1C`, the z-score is 0.218. Compound `Cn1c2ccccc2c2c(C(=O)NCCCN3CCCC3=O)cn(C3CCCCC3)c(=O)c21` displayed a z-score of -0.475.

Compound `Cc1ccc(-c2n[nH]c(=O)c3ccccc23)cc1S(=O)(=O)Nc1ccccc1` yielded a z-score of -0.913. The result for `CCCn1c(SCC(=O)c2ccc(CC)cc2)n[nH]c1=O` reads -0.42; that for `O=C(NCC(=O)N(Cc1cccs1)C(C(=O)NC1CCCC1)c1cccnc1)c1ccco1` (centres undefined), -0.0892. The result for `CC(C)c1nc2sc3c(=O)n(N)cnc3c2c2c1COC(C)(C)C2` reads -0.406; that for `CC(NC(=O)c1ccc(N(C)C)cc1)C(c1cccs1)N1CCN(C)CC1` (centres undefined), 0.264. In turn, `COc1ccc(/C=C/c2nc(C)c(-c3ccccc3)c(=O)[nH]2)cc1OC` returned a z-score of -0.0861. To `CC(C)Oc1ccc(CNC(=S)N/N=C/c2ccc([N+](=O)[O-])cc2)cc1` belongs -0.0872; to `COC(=O)c1ccc(N(C(=O)CNC(=O)c2ccco2)C(C(=O)NC2CCCC2)c2ccco2)cc1` (centres undefined), 0.0193; to `Cc1csc(NC(=O)CSc2nc(C)cs2)n1`, 0.0532.

Regarding `CC(=O)NS(=O)(=O)c1ccc(NC(=O)C(Sc2ccccc2)c2ccccc2)cc1` (centres undefined), the z-score is -0.151.

`C=CCNC(=O)CC(=O)N/N=C/c1ccccc1F` returned a z-score of -0.178. To `CCCOc1ccc(-c2nn(-c3ccccc3)cc2/C=C2\SC(N)=NC2=O)cc1` belongs 0.0819; to `CCCN(CCC)C(=O)Cn1c(=O)c2ccccc2n2c(=S)sc(-c3ccccc3C)c12`, -0.0822; to `CCN(CC)S(=O)(=O)c1ccc(-c2nnc(SCC(=O)Nc3ccc(OC)cc3)o2)cc1`, 0.249. The compound `Cc1ccc(-c2nc(C3CCCN(S(=O)(=O)c4ccc(C)cc4)C3)no2)cc1` (centres undefined) gave a z-score of 0.0801. To `N#CC1=C(N)Oc2ccc3ccc(O)cc3c2C1c1cccnc1` (centres undefined) belongs -0.181; to `Cc1cccc(NC(=O)C2CC(=O)N/C(=N/N=C/c3ccco3)S2)c1` (centres undefined), 0.232; to `COc1ccc(C)cc1NC(=O)CCC(=O)Nc1nnc(C(F)(F)F)s1`, -0.325. `CCC(C)(C)NC(=O)/C=C/c1ccc(OC)c(S(=O)(=O)N2CCOCC2)c1` registered a z-score of -0.0291. For `COc1ccccc1-n1c(C)nc(=O)c(-c2ccccc2)c1C`, the z-score was -0.00621.

As to `Cc1ccc(C(=O)Nc2ccc(N3CCN(S(C)(=O)=O)CC3)cc2)cc1`, the z-score was 0.0119. The result for `CCCC(=O)Nc1ccc(-c2nc3cc(C)ccc3o2)cc1` reads -0.316; that for `Cc1ccsc1/C=N/n1c(-c2ccco2)n[nH]c1=S`, 0.377.

`CCOC(=O)N/N=C/c1cn(Cc2ccccc2Cl)c2ccccc12`: the z-score is -0.0664.
